Assay results reported in the supplement of paper PMC3334620.
The full ranking holds about 33,000 sequences; the median of “E-score (-0.5 to 0.5)” is about -0.043, and the highest 2% start at about 0.37. The list shows a part of the results.

target: T1, Upc2 (UniProt Q12151); test: PBM E-score (8-mer binding enrichment) (E-score (-0.5 to 0.5)); higher = stronger / more preferred TF binding; most listed sequences are background and not binding sites; details: protein concentration: 200 nM; construct: GST-full length
T1 sequence: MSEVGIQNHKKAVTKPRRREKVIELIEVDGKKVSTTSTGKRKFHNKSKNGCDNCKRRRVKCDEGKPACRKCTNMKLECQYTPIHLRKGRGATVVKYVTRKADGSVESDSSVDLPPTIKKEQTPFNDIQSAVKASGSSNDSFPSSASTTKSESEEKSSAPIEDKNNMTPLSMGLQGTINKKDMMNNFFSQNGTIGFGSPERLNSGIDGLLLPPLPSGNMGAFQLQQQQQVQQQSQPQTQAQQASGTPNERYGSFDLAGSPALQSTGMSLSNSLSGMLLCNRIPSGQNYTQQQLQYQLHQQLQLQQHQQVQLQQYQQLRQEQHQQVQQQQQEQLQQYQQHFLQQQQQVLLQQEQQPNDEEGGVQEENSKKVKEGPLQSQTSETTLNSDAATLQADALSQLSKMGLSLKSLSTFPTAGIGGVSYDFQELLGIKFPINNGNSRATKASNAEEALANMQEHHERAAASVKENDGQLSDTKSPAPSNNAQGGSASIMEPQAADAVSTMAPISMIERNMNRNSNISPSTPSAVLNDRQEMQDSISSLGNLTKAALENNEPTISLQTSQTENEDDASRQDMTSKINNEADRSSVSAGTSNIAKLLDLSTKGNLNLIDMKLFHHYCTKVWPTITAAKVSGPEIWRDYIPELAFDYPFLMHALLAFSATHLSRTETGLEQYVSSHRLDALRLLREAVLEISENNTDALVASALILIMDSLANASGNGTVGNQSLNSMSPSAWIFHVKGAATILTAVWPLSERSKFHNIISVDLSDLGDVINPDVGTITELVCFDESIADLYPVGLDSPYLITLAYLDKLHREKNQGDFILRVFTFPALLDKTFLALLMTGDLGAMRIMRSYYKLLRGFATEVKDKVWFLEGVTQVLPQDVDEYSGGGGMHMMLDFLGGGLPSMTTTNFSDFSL
Procedure, shortened: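 Yeast transcription factors, full-length or as DNA-binding domains, were expressed with a GST tag using PURExpress in vitro transcription/translation. At about 100-200 nM they were applied to universal all-10-mer Agilent arrays, double-stranded by primer extension on fresh or once-stripped slides. Fluorescent anti-GST detected bound protein, and masliner normalised the scans. E-scores for ungapped eight-base words, pooled with reverse complements, came from the Universal PBM Analysis Suite.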

| Sequence | PBM E-score |
| --- | --- |
| ATTCTCCA | 0.0431 |
| AGACGGGA | -0.153 |
| CCCCCACA | -0.254 |
| CCACGCCC | -0.165 |
| ACCAATCA | -0.0784 |
| GTCTTTCA | -0.0186 |
| ACAGACAT | 0.0642 |
| ACGTTTGC | 0.138 |
| TACCATGA | -0.108 |
| AGGGCCCG | -0.126 |
| CTGATAAG | -0.16 |
| CAATTAGC | -0.13 |
| CCGTCATA | -0.0362 |
| ACACTTTA | 0.0396 |
| ATCTTTCG | -0.0351 |
| AACAGTGG | -0.123 |
| CCTACCCC | -0.00901 |
| GATAGTAC | 0.00652 |
| CTGCCGAC | 0.03 |
| ACATAAAA | 0.0446 |
| AAATCAGA | -0.0799 |
| CCCCGGAA | -0.159 |
| CAACCTGG | -0.109 |
| CCTCCCCC | -0.292 |

| Sequence | PBM E-score |
| --- | --- |
| CATCGAGG | 0.0235 |
| AGTGCCCC | -0.256 |
| GTGCTCAA | 0.0126 |
| ACCCACTA | -0.0604 |
| TAGGGTAA | 0.0122 |
| ACGTGAAA | 0.0802 |
| CGCCATTC | -0.167 |
| ATCATGAT | 0.11 |
| ACGTCAAG | -0.0187 |
| AAGGCACA | -0.124 |
| GGTCATAA | -0.0481 |
| CCGTGCAC | -0.14 |
| AAATGCCA | -0.142 |
| GGCGCGAC | 0.0597 |
| AGAAAGTA | -0.0281 |
| TCTCTCCA | -0.118 |
| TCCCAGAA | 0.0528 |
| CCTTACTA | 0.029 |
| ACACTGTA | 0.106 |
| ATTATTTA | 0.0995 |
| ATATTCGA | 0.185 |
| ACGTGTAA | 0.0268 |
| AAGCGCAG | -0.0347 |
| CAAGGACC | -0.0122 |

| Sequence | PBM E-score |
| --- | --- |
| ATCCTCCC | -0.189 |
| CATTACCA | -0.113 |
| AGGCGGGG | -0.0481 |
| AATCAATC | -0.0483 |
| CTCCGTTA | 0.0683 |
| GATGTTAA | -0.0488 |
| ACAGATAA | -0.126 |
| AGCGTACC | 0.212 |
| CCCGAATC | -0.0515 |
| TCGCCTCA | -0.0427 |
| GTATGCGA | 0.357 |
| CAGATGCC | -0.112 |
| CCATTCAG | -0.352 |
| GACGGGGA | -0.0559 |
| CGCGGGCC | -0.172 |
| CGTGGAAC | 0.112 |
| ATTGTGGA | -0.191 |
| ACGTGAAC | 0.289 |
| GCTTTGAA | 0.0379 |
| TGATCCCA | -0.295 |
| ATGTAGTC | -0.097 |
| CACTACAG | -0.181 |
| GGTAACCA | -0.169 |
| CGGAGTAC | 0.199 |

| Sequence | PBM E-score |
| --- | --- |
| CACTTCTA | -0.152 |
| CTGATCAC | -0.26 |
| AAGAACGA | 0.408 |
| CATCGGGG | -0.184 |
| AAAGGCTG | -0.293 |
| CGCACTTA | -0.118 |
| TCGGTACA | 0.108 |
| ACGTCAGG | -0.204 |
| AAAAGCCA | -0.0725 |
| CCCGCAGG | -0.0802 |
| TAGTACAA | 0.00376 |
| CCCGTGAG | -0.17 |
| CATGGTAC | -0.00424 |
| GGATGGGA | 0.063 |
| AGGTCCTA | -0.0622 |
| GCTTGGTA | 0.057 |
| ATTAATAA | 0.0142 |
| ATCTCCGG | -0.0466 |
| ATCCTATG | -0.066 |
| AACGAGCA | 0.444 |
| GCTCCAAA | -0.0579 |
| AATAGTCA | -0.0817 |
